Experimental data published in PubChem BioAssay AID588453 (National Center for Advancing Translational Sciences (NCATS), 2011).
Out of some 390,000 compounds screened, about 4,000 (1%) were called active. The inconclusive results got no clear call from the source; some entries with a clear call stand among them for comparison. Calls come from the whole dose curve; as a rule, active = well fitted inhibition curve with a large enough effect; inconclusive = small, poorly fitted or top-dose-only effect; inactive = no such curve, though single readings can be large or run the other way. A potency beside an inconclusive call is a rough fit, not a confirmed value.

These compounds were tested against Thioredoxin reductase 1, cytoplasmic (Rattus norvegicus) (UniProt O89049) (assay: qHTS Assay for Inhibitors of Mammalian Selenoprotein Thioredoxin Reductase 1 (TrxR1): qHTS). Details: recombinant rTrxR1, NADPH fluorescence consumption, selenite substrate; series mostly up to 114 µM.
How it was run: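 Rat TrxR1 (90 nM in the dispensed reagent) was pre-reduced with 400 uM NADPH for 5 min at room temperature, then incubated with compound for 15 min. After 400 uM selenite was added, NADPH fluorescence (Ex 340/Em 450 nm) was followed for 8 min.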
Note: nearly all actives have a fitted effect of over 65% in size.
Potency is the fitted concentration of half-maximal effect; tags give direction and shape of the fitted curve.

Chain of UniProt O89049 (O89049 whole entry, looked up): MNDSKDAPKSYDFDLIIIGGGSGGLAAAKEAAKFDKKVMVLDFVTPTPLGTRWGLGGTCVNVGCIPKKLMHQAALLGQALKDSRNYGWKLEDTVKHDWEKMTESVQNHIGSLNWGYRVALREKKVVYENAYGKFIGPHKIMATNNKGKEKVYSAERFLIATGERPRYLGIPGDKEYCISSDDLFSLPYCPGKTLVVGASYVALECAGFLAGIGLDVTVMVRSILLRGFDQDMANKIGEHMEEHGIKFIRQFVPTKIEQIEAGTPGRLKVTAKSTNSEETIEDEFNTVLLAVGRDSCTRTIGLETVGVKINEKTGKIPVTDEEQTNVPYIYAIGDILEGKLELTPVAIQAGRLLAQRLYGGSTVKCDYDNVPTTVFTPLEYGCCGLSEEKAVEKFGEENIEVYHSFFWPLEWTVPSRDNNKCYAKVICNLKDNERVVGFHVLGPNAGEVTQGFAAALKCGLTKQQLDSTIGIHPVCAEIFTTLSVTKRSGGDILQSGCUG

Compound	Potency
CCOc1ccc(OCc2ccc(C(=O)N/N=C(\C)c3ccccn3)cc2)cc1	inactive
CC(=O)c1ccc(OC(=O)COc2ccccc2)cc1	inconclusive: 50.1 µM [inhibitor, partial curve]
Cc1nc(N2CCc3ccccc3C2)[nH]c(=O)c1Cc1ccccc1	inactive
Cc1ccc(CN2CCNC(=O)C2CC(=O)NCc2cc(C)n(C)n2)cc1 (centres undefined)	inconclusive: 70.8 µM [inhibitor, single point]
CCOC(=O)c1c(NC(NC(C)=O)C(Cl)(Cl)Cl)sc2c1CCCC2 (centres undefined)	inactive
Cc1cccc(C(=O)NC(=S)Nc2ccc(S(=O)(=O)N3CCN(C)CC3)cc2)c1	inconclusive: 25.1 µM [inhibitor, single point]
O=C(O)c1ccccc1C(=O)Nc1nccs1	inconclusive: 89.1 µM [inhibitor, single point]
C=CCn1c(SCC#N)nc2ccccc2c1=O	inconclusive: 89.1 µM [inhibitor, single point]
COC(=O)c1ccccc1NC(=O)N1CCC(n2c(C)nc3cccnc32)CC1	inactive
N#CC1=C(N)CCC1	inactive
CCCOc1ccc(C(=O)CCN2CCCCC2)cc1	inconclusive: 50.1 µM [inhibitor, partial curve, poor fit]
O=C(N/N=C/c1cn(-c2ccccc2)nc1-c1cccs1)c1ccncc1	inactive
COCc1[nH]nc2c1C(c1sccc1C)C(C#N)=C(N)O2 (centres undefined)	inconclusive: 17.8 µM [inhibitor, partial curve]
CC(=O)c1ccc(C(=O)N(Cc2cccnc2)c2nc3c(C)c(C)ccc3s2)cc1	inactive
CC(C)NC(=O)Nc1cccc2c1O[C@H](CN(C)C(=O)NC1CCCCC1)[C@H](C)CN([C@H](C)CO)C2=O	inconclusive: 22.4 µM [inhibitor, full curve, poor fit]
COc1cccc(C(=O)N2CCN(Cc3ccccn3)CC2)c1	inactive
Cc1sc(NC(=S)Nc2ccc(F)cc2)c(C(N)=O)c1C	inconclusive: 22.4 µM [inhibitor, single point]
O=C(c1ccccc1F)N1c2nc(-c3ccco3)nn2C2(CCCCC2)[C@@H]2CCCC[C@@H]21	active: 25.1 µM
O=[N+]([O-])c1cc([N+](=O)[O-])c2nonc2c1Nc1ccc(O)cc1	active: 28.2 µM
COc1ccc(/C=C/C(=O)N/C(=C\c2ccco2)C(=O)NCCc2nc3ccccc3[nH]2)cc1	inconclusive: 89.1 µM [inhibitor, single point]
CC(=O)c1cccc(OCC(=O)N(C)CC(=O)NCc2ccco2)c1	inconclusive: 50.1 µM [inhibitor, partial curve]
CC1(C)CN(c2ccc(-c3ccnc4ncnn34)cc2)C1=O	inconclusive: 100 µM [inhibitor, single point]
Clc1cccc(CSc2nnc(-c3ccccn3)n2Cc2ccco2)c1	inconclusive: 44.7 µM [inhibitor, partial curve]

Compound	Potency
COc1ccc(NC(=O)Nc2sc(NS(=O)(=O)c3ccccc3)nc2C)cc1	inconclusive: 70.8 µM [inhibitor, partial curve]
O=c1oc2ccc(Cl)cc2nc1/C=C(\O)c1cccs1	inconclusive: 31.6 µM [inhibitor, single point]
Cc1cc(N2CCC(C(=O)Nc3ccccc3Cl)CC2)n2nc(C)c(-c3ccc(Cl)cc3)c2n1	inactive
CC(=O)Nc1ccc(NC(=O)C(c2ccccc2)N2Cc3ccccc3C2=O)cc1 (centres undefined)	inactive
COc1ccc(-c2ccc(SCC(=O)NCc3ccco3)nn2)cc1OC	inconclusive: 39.8 µM [inhibitor, partial curve, poor fit]
Oc1ccc[n+](CC(O)c2ccccc2)c1 (centres undefined)	inactive
Cc1ccc2c(CNCc3ccco3)cc(=O)oc2c1	inconclusive: 44.7 µM [inhibitor, partial curve, poor fit]
COc1ccc(N2C(=O)CCSC23C(=O)N(Cc2ccc(F)cc2)c2ccccc23)cc1 (centres undefined)	inactive
COc1ccc2c(COC(=O)CNS(=O)(=O)c3ccc(C)c(C)c3)cc(=O)oc2c1	inconclusive: 89.1 µM [inhibitor, single point]
NS(=O)(=O)c1ccc(NC2=CC(c3ccc([N+](=O)[O-])cc3)N(c3ccc(S(N)(=O)=O)cc3)C2=O)cc1 (centres undefined)	active: 50.1 µM
Cn1c(/C=N/Nc2nc3ccccc3[nH]2)nc2ccccc21	inactive
CSc1nc2ccc(NS(=O)(=O)c3c(Cl)cccc3Cl)cc2s1	inconclusive: 89.1 µM [inhibitor, partial curve, poor fit]
COc1ccc(/C=C2\CCCC(C(=O)C(F)(F)F)=C2O)cc1	inconclusive: 10 µM [inhibitor, partial curve, poor fit]
Cc1ccc(C(=O)/C=C/c2cc(Br)cc(Br)c2O)o1	inconclusive: 56.2 µM [inhibitor, single point]
CCCn1c(=N)n(CC(O)c2ccc(C)cc2)c2ccccc21 (centres undefined)	inconclusive: 89.1 µM [inhibitor, partial curve, poor fit]
O=c1c2cc(F)ccc2sn1-c1ccccc1	inactive
COc1cc(C2c3c(-c4ccccc4)n[nH]c3C(=O)N2c2ccc(C(=O)O)cc2)ccc1O (centres undefined)	inconclusive: 70.8 µM [inhibitor, single point]
COc1cccc(CCc2nnc(CCC(=O)N3CCN(Cc4ccccn4)CC3)o2)c1	active: 31.6 µM
COC(=O)Cc1c(C)c2ccc(OC(C)C)cc2oc1=O	inconclusive: 44.7 µM [inhibitor, partial curve]
COc1ccc(C(=O)C2CCN(C(=O)c3ccc(OC)cc3)CC2)cc1	inactive
C=CCNC(=S)N1CCN(c2ccc([N+](=O)[O-])cc2)CC1	inconclusive: 79.4 µM [inhibitor, single point]
Cc1ccc(NC2=C(CC(=O)O)C(c3ccccc3)N(c3ccc(C)cc3)C2=O)cc1 (centres undefined)	inconclusive: 79.4 µM [inhibitor, single point]
O=[N+]([O-])c1ccc(-c2ccc(/C=N/n3cnnc3)o2)c(Br)c1	inconclusive: 70.8 µM [inhibitor, partial curve]

Compound	Potency
O=C(CN(Cc1ccco1)S(=O)(=O)c1cccs1)Nc1ccccc1C(F)(F)F	inconclusive: 20 µM [inhibitor, partial curve, poor fit]
O=C(NC(=S)NC(=O)c1ccccc1F)c1ccccc1F	inconclusive: 39.8 µM [inhibitor, single point]
CC(Nc1cc(=O)n(C)c(=O)[nH]1)c1ccccc1 (centres undefined)	inconclusive: 89.1 µM [inhibitor, single point]
FC(F)(F)C1=Nc2cccc3cccc(c23)N1	active: 39.8 µM
C=CCSC1=N/C(=C\C=C\c2ccco2)C(=O)S1	inconclusive: 70.8 µM [inhibitor, single point]
Cc1csc(N/N=C\c2cccnc2)n1	inconclusive: 25.1 µM [inhibitor, single point]
COc1ccccc1/C=C/C(=O)NC(=S)N1CCOCC1	inactive
CCc1cc(C(c2ccc(OC)c(OC)c2)N2CCOCC2)c(NC(=O)c2ccccc2)s1 (centres undefined)	inconclusive: 3.55 µM [inhibitor, full curve]
CCC(c1nc2ccccc2c(=O)n1-c1cccnc1)N1C(=O)c2ccccc2C1=O (centres undefined)	inconclusive: 39.8 µM [inhibitor, single point]
O=S(=O)(Nc1ccccc1)c1ccc(NS(=O)(=O)c2cccs2)cc1	inconclusive: 89.1 µM [inhibitor, partial curve, poor fit]
CC1=C(C(=O)OC2CCCC2)C(c2ccc(C)o2)C2=C(CC(c3cccs3)CC2=O)N1 (centres undefined)	inconclusive: 28.2 µM [inhibitor, single point]
CC(=O)n1cc(C(C[N+](=O)[O-])SCCN)c2ccccc21 (centres undefined)	inconclusive: 2.51 µM [inhibitor, partial curve, poor fit]
O=C1CCN(Cc2ccc(O)cc2)CCN1CCO	inconclusive: 56.2 µM [inhibitor, single point]
O=C(COC(=O)c1ccccc1Oc1ccccc1)Nc1ccc(Br)cc1	inactive
COc1ccc(Cc2noc(CN3CCCN(Cc4ccc(F)cc4)CC3)n2)cc1OC	inconclusive: 79.4 µM [inhibitor, partial curve]
O=C(O)c1cn(Cc2ccccc2)nc1-c1cccnc1	inactive
Oc1ccc(C2C=C(c3ccc(F)cc3)Nc3ncnn32)cc1 (centres undefined)	inconclusive: 31.6 µM [inhibitor, single point]
CCOC(=O)c1c(NC(=S)Nc2cccnc2)sc(C)c1C	inconclusive: 20 µM [inhibitor, partial curve]
C=CCC[C@H](Cc1ccc(F)cc1)C(=O)OC[C@@H](Cc1c[nH]c2ccccc12)NC(=O)[C@@H](CC=C)CC(=O)NCCO	inactive
Cc1ccc2cccc(OCC(=O)NCc3ccco3)c2n1	inconclusive: 50.1 µM [inhibitor, partial curve, poor fit]
COc1ccc(-c2cc(OC(=O)c3ccccc3C)c3c(C)oc(C)c3c(=O)c2)cc1	inconclusive: 79.4 µM [inhibitor, partial curve, poor fit]
CCSc1nnc(N2C(=O)C(O)=C(C(=O)c3ccco3)C2c2cccc(OC)c2)s1 (centres undefined)	inconclusive: 56.2 µM [inhibitor, partial curve, poor fit]
Cc1ccc(NCc2nnc(SCc3ccc(C#N)cc3)n2Cc2ccco2)c(C)c1	inconclusive: 35.5 µM [inhibitor, single point]
